# About 2,200 (0.71%) of roughly 310,000 compounds showed an effect of 50% or more. The effect is printed as a negative number. The list shows a part of the results.
# Molecular target: human ether-à-go-go-related gene (hERG) potassium channel (human, UniProt Q12809)
# Assay: primary screen, population patch clamp on CHO cells stably expressing hERG
# human ether-à-go-go-related gene (hERG) potassium channel, sequence (Q12809 whole entry, looked up): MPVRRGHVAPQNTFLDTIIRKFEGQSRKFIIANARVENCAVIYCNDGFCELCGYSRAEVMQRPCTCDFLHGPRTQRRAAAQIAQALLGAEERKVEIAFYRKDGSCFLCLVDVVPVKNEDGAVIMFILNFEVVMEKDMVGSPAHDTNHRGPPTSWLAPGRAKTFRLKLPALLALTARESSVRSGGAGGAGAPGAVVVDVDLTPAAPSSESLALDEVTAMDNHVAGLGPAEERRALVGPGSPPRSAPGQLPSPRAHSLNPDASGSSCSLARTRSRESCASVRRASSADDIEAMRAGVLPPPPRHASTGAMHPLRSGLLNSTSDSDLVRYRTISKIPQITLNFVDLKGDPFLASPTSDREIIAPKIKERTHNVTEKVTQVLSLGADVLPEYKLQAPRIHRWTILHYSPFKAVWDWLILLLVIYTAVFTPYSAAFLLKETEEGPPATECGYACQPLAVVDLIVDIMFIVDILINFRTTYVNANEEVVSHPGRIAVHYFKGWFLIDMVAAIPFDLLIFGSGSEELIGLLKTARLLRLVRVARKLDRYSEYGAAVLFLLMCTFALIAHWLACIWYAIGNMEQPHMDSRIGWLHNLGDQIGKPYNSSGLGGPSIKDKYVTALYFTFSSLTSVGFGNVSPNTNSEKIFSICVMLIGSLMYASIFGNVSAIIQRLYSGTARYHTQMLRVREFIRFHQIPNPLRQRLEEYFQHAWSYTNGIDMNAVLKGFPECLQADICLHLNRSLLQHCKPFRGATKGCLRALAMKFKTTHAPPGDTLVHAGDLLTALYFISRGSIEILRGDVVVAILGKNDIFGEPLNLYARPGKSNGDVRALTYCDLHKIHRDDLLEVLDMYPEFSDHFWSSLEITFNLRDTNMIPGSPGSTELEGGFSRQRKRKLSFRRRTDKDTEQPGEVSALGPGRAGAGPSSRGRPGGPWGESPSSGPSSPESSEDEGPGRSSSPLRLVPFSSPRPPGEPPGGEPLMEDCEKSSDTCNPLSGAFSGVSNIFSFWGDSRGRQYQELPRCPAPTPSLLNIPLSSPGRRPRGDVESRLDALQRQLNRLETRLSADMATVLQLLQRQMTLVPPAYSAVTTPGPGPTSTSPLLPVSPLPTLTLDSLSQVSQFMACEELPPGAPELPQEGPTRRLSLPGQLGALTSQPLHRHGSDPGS
row,SMILES,"hERG current change (%, negative = inhibition) at 1uM"
1,CCOCC(=O)Nc1cccc(Br)c1,2.52%
2,CCNC(=S)NCc1ccc2c(c1)OCO2,1.45%
3,COc1ccccc1N1C(=O)CCC1(C#N)c1ccccc1 (stereo not shown),-8.84%
4,CCNC(=O)COC(=O)c1cc(C)n(-c2ccccc2)c1C,5.89%
5,COc1cccc(NC(=O)CN(C)C(=O)c2ccc(COc3ccccc3)o2)c1,10.4%
6,CN1[C@@H]2CC[C@H]1CC(OC(=O)c1c[nH]c3ccccc13)C2.Cl (stereo partly shown),-17.4%
7,CC(=O)N1CCOc2ccc(S(=O)(=O)N3CCN(c4cc(C)ccc4C)CC3)cc21,10.1%
8,O=C(CN=C1NS(=O)(=O)c2ccccc21)OCC(=O)c1cc(F)ccc1F,13.3%
9,Fc1ccccc1OCCCCCCN1CCCC1,-26.1%
10,CC(C)CCSc1nnc(N)s1,10.2%
11,Cn1c(C(=O)c2ccccc2)nc2ccccc21,3.63%
12,Cc1ccc2c(c1)COc1c3ccc(C(=O)N[C@@H](C)CO)cc3nn1-2,15.9%
13,CN(C(=O)c1cc(COc2c(F)cccc2F)on1)C1CCOC1 (stereo not shown),-2.14%
14,Cc1ccc(-n2nc(C)c3c(=O)[nH]c(C(F)(F)F)nc32)cc1,-1.46%
15,O=C(COC(=O)COc1ccccc1[N+](=O)[O-])Nc1ccccc1Br,7.41%
16,Cc1ccc2sc(-c3ccc(NC(=O)CCN4C(=O)c5ccccc5C4=O)cc3)nc2c1,11.4%
17,Cc1onc(-c2cccc(Cl)c2Cl)c1C(=O)O/N=C(\N)c1ccc([N+](=O)[O-])o1,-0.409%
18,COc1ccc(SC[C@H](Cc2ccccc2)N2CC[C@@H](C)CCC2=O)cc1,7.28%
19,CCC(=O)Nc1ccc(F)c(Cl)c1,15%
20,Cc1nc2ccc(S(=O)(=O)N(C)CC(=O)N3CCc4ccccc4C3)cc2s1,-6.59%

row,SMILES,"hERG current change (%, negative = inhibition) at 1uM"
1,CCCCC(CC)CNC(=O)C(=O)c1ccccc1NC(C)=O (stereo not shown),10.9%
2,Cc1cc2cc(CCNC(=O)CCCc3ccccc3)c(=O)[nH]c2cc1C,19.1%
3,COc1ccc(CNC(=O)CN(c2cc(C)cc(C)c2)S(=O)(=O)c2c(C)[nH]c(=O)[nH]c2=O)cc1,19.2%
4,CN1C(=O)S/C(=C/c2cccnc2)C1=O,-5.79%
5,O=C(Nc1ccc(C(=O)N2CCOCC2)cc1)Nc1ccc(Cl)cc1Cl,2.33%
6,CC(=O)c1cccc(NC(=O)C(C)OC(=O)CCC2CCCCC2)c1 (stereo not shown),8.04%
7,CCCOC(=O)c1c(NC(=O)c2cnn3c2NC(c2ccccc2)CC3C(F)(F)F)sc2c1CCCC2 (stereo not shown),0.31%
8,O=C(CCc1ccccc1)Nc1ccc(NC(=O)C2CC2)nc1,-0.478%
9,CCCC(=O)Nc1ccccc1-c1nnc(SCC)[nH]c1=O,13%
10,N#CCc1nc(-c2cc3ccccc3oc2=O)cs1,6.48%
11,Cc1ccc(NC(=O)NC2CCCCCCC2)c(C)c1,9.81%
12,CCn1ccnc1CNC(=O)C1CCC(=O)N(Cc2cccc(C(F)(F)F)c2)C1 (stereo not shown),1.22%
13,O=c1oc(-c2cccs2)nc2scc(-c3cccs3)c12,9.84%
14,NC(=O)Nc1ccc(C(=O)OCC(=O)Nc2cccc(S(=O)(=O)NC3=NCCCCC3)c2)cc1,5.45%
15,O=[N+]([O-])c1ccc(O)c(CN2CCCCCC2)c1,18%
16,COc1ccc(N2CCN(CCCN)CC2)cc1,9.68%
17,COc1ccc(-c2nsc3c(N4CCCC4)ncnc23)cc1,4.38%
18,Cc1noc(C)c1COc1ccc(CC(=O)NCCc2ccccn2)cc1,2.87%
19,Cn1c(=O)c2c(Nc3ccc(F)cc3)cc(=O)n(-c3ccccc3)c2n(C)c1=O,13.5%
20,COc1ccc(C2=NN(c3ccccc3)C(c3ccc(OC)c(OC)c3)C2)cc1 (stereo not shown),15.1%

row,SMILES,"hERG current change (%, negative = inhibition) at 1uM"
1,COc1ccc(Cl)cc1NC(=O)c1cc(-c2cc(C)ccc2O)n[nH]1,12.1%
2,O=C(c1cc2c(=O)n3ccccc3nc2s1)N1CCOCC1,-4.72%
3,O=C(CNC(=O)c1cn2ccccc2n1)Nc1ccc(F)c(F)c1,11.8%
4,O=C(Nc1cccc(O)c1)c1c(O)c2ccccc2[nH]c1=O,10.4%
5,COCCCNC(=O)Cn1nnc(-c2ccc(NC(=O)c3ccc(F)cc3)cc2)n1,14.4%
6,N#Cc1c(NC(=O)CSc2ncnc3c2cnn3-c2ccccc2Cl)sc2c1CCCC2,-0.537%
7,OCc1cc(-c2ccccn2)no1,8.87%
8,O=C(NCCN1CCOCC1)c1sc2ccccc2c1Cl,6.39%
9,O=C(c1ccc(N2CCCS2(=O)=O)cc1)N1CCN(c2ccccc2)CC1,6.36%
10,O=C(CN1CCN(c2ccccn2)CC1)Nc1cccc(F)c1,8.15%
11,c1csc(-c2nc3ccccc3[nH]2)c1,15.8%
12,COc1ccc(C2CC3(CC(C)(C)NC(=O)N3)Oc3cc(O)ccc32)cc1 (stereo not shown),-6.94%
13,COc1cc2c(cc1OC)C(c1cccc([N+](=O)[O-])c1)N(C(=O)CCC(=O)O)CC2 (stereo not shown),9.28%
14,CSc1ncccc1C(=O)OCC(=O)c1[nH]c(C)c(C(C)=O)c1C,9.01%
15,Cc1ccc(S(=O)(=O)N2CCOCC2)cc1NC(=O)CSCc1c(C)noc1C,-1.11%
16,O=C(COC(=O)c1cc([N+](=O)[O-])ccc1N1CCOCC1)Nc1ncc(Cl)cc1Cl,-8.33%
17,CN(C)S(=O)(=O)c1ccc(Cl)c(C(=O)NNC(=O)Cc2nc3ccccc3n2C)c1,8.52%
18,O=C(Nc1ccc(Cl)cc1)c1ccc(-n2cncn2)c([N+](=O)[O-])c1,-9.4%

# Source: publication PMC4336329 (PLoS ONE, 2015)
